The campaign covered roughly 91,000 compounds. About 290 (0.32%) were called active. This list was built around the results that the source calls inconclusive (neither active nor inactive); the mix of calls is not that of the screen. The call rests on the fitted dose curve; in most records, active means well fitted inhibition curve with a large enough effect; inconclusive means small, poorly fitted or top-dose-only effect; inactive means no such curve, though single readings can be large or run the other way. Potencies beside an inconclusive call are fits to weak or partial responses and may not hold up.
target: Single-stranded DNA cytosine deaminase (Homo sapiens) (UniProt Q9GZX7); assay: Primary qHTS assay for inhibitors of Activation Induced Cytidine Deaminase (AID): AID signal; details: AID deamination FRET fluorescence, UDG-coupled, 4 h; activity change, negative = inhibition: at 115 µM (top of the series); further: nearly all actives have a fitted effect of over 25% in size
On the % scale 0 is the no-effect control and ±100 the full control effect; potency means the concentration at half of the fitted maximal effect; tags describe the fitted curve by direction and shape.

UniProt Q9GZX7, sequence (Q9GZX7 whole entry, looked up): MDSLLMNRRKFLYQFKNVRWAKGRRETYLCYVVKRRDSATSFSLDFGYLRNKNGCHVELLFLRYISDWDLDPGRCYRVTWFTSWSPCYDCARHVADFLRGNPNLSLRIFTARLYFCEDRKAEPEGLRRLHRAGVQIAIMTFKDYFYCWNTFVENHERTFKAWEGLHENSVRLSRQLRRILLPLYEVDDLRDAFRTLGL

| SMILES | activity change, negative = inhibition | Potency |
| --- | --- | --- |
| Cc1cccc(OCCC(=O)NC23CC4CC(CC(C4)C2)C3)c1 | inactive: -16.3% |  |
| CCOC(=O)N1CCN(C(=O)c2cc3occc3n2Cc2ccccc2F)CC1 | inactive: -19.9% |  |
| CCCc1cc(=O)oc2cc(C)c3c(-c4ccccc4)coc3c12 |  | inconclusive: 39.8 µM [inhibitor, full curve, poor fit] |
| COc1cccc(NC(=O)C(Cc2ccccc2)NS(=O)(=O)c2ccc3c(c2)c(=O)n(C)c(=O)n3C)c1 (centres undefined) |  | inconclusive: 89.1 µM [inhibitor, single point] |
| CCOc1ccccc1NC(=O)CSc1nccn1-c1cccc(C)c1 |  | inconclusive: 17.8 µM [inhibitor, full curve, poor fit] |
| CCN(CC)C(=O)C1CCN(S(=O)(=O)c2c(C)noc2/C=C/c2cccc(OC)c2)CC1 |  | inconclusive: 39.8 µM [inhibitor, partial curve, poor fit] |
| Cc1ccc(Nc2c(C(C)C)c(C)c(C#N)c3nc4ccccc4n23)cc1 |  | inconclusive: 39.8 µM [inhibitor, single point] |
| Cc1ccc(Cn2cnc3nc4c(cc3c2=O)CC(C)CC4)cc1 (centres undefined) |  | inconclusive: 44.7 µM [inhibitor, partial curve, poor fit] |
| CC(C)c1ccc(S(=O)(=O)c2cnc(SCC(=O)Nc3ccc4c(c3)OCCO4)[nH]c2=O)cc1 |  | inconclusive: 56.2 µM [inhibitor, partial curve, poor fit] |
| CCN1CCC2(CC1)Oc1ccccc1C1CC(c3ccccc3Cl)=NN12 (centres undefined) |  | inconclusive: 89.1 µM [inhibitor, partial curve, poor fit] |
| O=C1CN(C(=O)COc2ccc(Cl)cc2Cl)C(c2ccccc2)c2cc(F)ccc2N1 (centres undefined) |  | inconclusive: 44.7 µM [inhibitor, partial curve, poor fit] |
| CSc1ccc(-c2nc3cccc(C)n3c2Nc2ccc(Cl)cc2)cc1 |  | inconclusive: 28.2 µM [inhibitor, full curve] |
| CCn1c(=O)cc(OCC(=O)N(C)c2cc(Cl)ccc2C)c2ccccc21 |  | inconclusive: 89.1 µM [inhibitor, partial curve] |
| CCOC(=O)c1c(NC(=O)C2c3ccccc3Oc3ccccc32)sc(C)c1CC |  | inconclusive: 56.2 µM [inhibitor, partial curve, poor fit] |
| Oc1ccc(NCc2ccccc2OCc2ccc(Cl)cc2)cc1 |  | active: 31.6 µM |
| NC(=S)NCc1ccc(F)cc1 | inactive: -2.87% |  |
| COc1ccc(Cc2nc3ccc(C(=O)NCCc4ccccc4)cc3o2)cc1 |  | inconclusive: 39.8 µM [inhibitor, partial curve, poor fit] |
| O=C(CSCc1cnn(-c2ccccc2)c1-n1cccc1)NCc1ccccc1Br |  | inconclusive: 31.6 µM [inhibitor, partial curve] |
| O=C(NCC(c1cccs1)N1CCCCCC1)c1cc(=O)c2cc(Cl)ccc2o1 (centres undefined) | inactive: 3.11% |  |
| COc1cccc(Nc2nc(N)c(C(=O)c3ccc(OC)c(OC)c3OC)s2)c1 | inactive: -14% |  |

| SMILES | activity change, negative = inhibition | Potency |
| --- | --- | --- |
| CCOc1ccccc1Nc1ncnc2c1c(-c1ccccc1)cn2-c1ccc(OC)cc1 |  | inconclusive: 89.1 µM [inhibitor, partial curve, poor fit] |
| CCOCN(C(=O)Cn1c(CC(C)C)nc2ccccc21)c1c(C)cccc1CC |  | inconclusive: 50.1 µM [inhibitor, partial curve, poor fit] |
| COc1cc(NC(=O)CCc2c(C)nc3c4c(C)cc(C)nc4nn3c2C)cc(OC)c1 |  | inconclusive: 35.5 µM [inhibitor, partial curve, poor fit] |
| CC1CCN(S(=O)(=O)c2ccc3nc(Nc4cccc(C(F)(F)F)c4)ccc3c2)CC1 |  | inconclusive: 12.6 µM [inhibitor, full curve, poor fit] |
| COc1ccc2c(c1)c(C(C(=O)O)N1CCN(Cc3ccccc3)CC1)cn2CCC(=O)O (centres undefined) |  | inconclusive: 89.1 µM [inhibitor, single point] |
| COC(=O)c1ccc2c(=O)n(CCCCCC(=O)NC(C)C)c(=O)[nH]c2c1 |  | inconclusive: 22.4 µM [inhibitor, partial curve, poor fit] |
| Cc1ccc2nc(-c3ccco3)cc(C(=O)O)c2c1 | inactive: 8.88% |  |
| C=CCNC(=O)COCC(=O)O | inactive: 8.43% |  |
| CCOc1ccc(N2CC(c3nc4ccccc4n3Cc3cccc(C)c3)CC2=O)cc1 (centres undefined) |  | inconclusive: 35.5 µM [inhibitor, full curve, poor fit] |
| Oc1ccc(Cl)cc1C=Nc1cc(C(F)(F)F)ccc1Oc1ccc(Cl)cc1 | inactive: -19% |  |
| Cc1cccc(N2CCN(C(=O)c3ccc(NC(=O)c4nsc5ccccc45)cc3)CC2)c1C |  | inconclusive: 39.8 µM [inhibitor, partial curve, poor fit] |
| O=C(CNC(=O)c1ccc(Oc2ccccc2)cc1)NNC(=O)CSc1cccc2cccnc12 |  | inconclusive: 28.2 µM [inhibitor, partial curve, poor fit] |
| CCN(c1cc(C)cc(C)c1)S(=O)(=O)c1nnc(NC(=O)c2ccco2)s1 |  | inconclusive: 79.4 µM [inhibitor, single point] |
| Cc1ccc(C)c(OCc2ccc(-c3nc(C#N)c(N(C)C)o3)o2)c1 | inactive: -7.34% |  |
| O=C(NCCc1ccccc1)c1ccc2c(c1)CCN2S(=O)(=O)c1ccccc1 |  | inconclusive: 10 µM [inhibitor, full curve, poor fit] |
| COc1ccc(CCNC(=O)c2c(C)nn(-c3ccc(F)cc3)c2-n2cccc2)c(OC)c1OC |  | inconclusive: 17.8 µM [inhibitor, full curve, poor fit] |
| Cc1ccc(Nc2sc(C(=O)c3ccccc3)c(N)c2S(=O)(=O)c2ccccc2)c(C)c1 |  | inconclusive: 20 µM [inhibitor, full curve, poor fit] |
| CC(=O)c1cccc(NC(=O)c2nc(-c3ccccc3)n(-c3cccc(C)c3)n2)c1 |  | inconclusive: 50.1 µM [inhibitor, partial curve, poor fit] |
| O=C(/C=C/c1cccs1)N1CCC(Cc2ccccc2)CC1 |  | inconclusive: 100 µM [inhibitor, partial curve, poor fit] |

Source: PubChem BioAssay AID1347428 (National Center for Advancing Translational Sciences (NCATS), 2020)
